Test results reported in article PMC5206748, “Disruption of cell adhesion by an antibody targeting the cell-adhesive intermediate (X-dimer) of human P-cadherin” (Scientific Reports, 2017).

Target: the molecule itself
Assay: SEC; antibody and P-cadherin construct 10 μM each, 60 min at room temperature (TSP11 with EC12 K14E also 720 min), Superose 12 10/300 GL, 10 mM HEPES, 150 mM NaCl, 3 mM CaCl2, pH 7.5, 25 °C

B1: human P-cadherin EC12 (domain or fragment)
chain: not shown
notes: P-cadherin (cadherin-3), human, extracellular domains EC1-EC2; Samples monomer, X-dimer and strand-swap dimer in fast exchange; the strand-swap dimer is the major component; source: E. coli Rosetta2 (DE3), SUMO fusion, Ni-NTA, SUMO cleaved with Ulp1, SEC
binding result: binds
